# The BET-seq Pho4 binding data (Le et al. 2018)
# The other results are listed elsewhere or left out. Values were computed here from the reads of four pooled replicates and scatter widely.
# Biological target: T1, Pho4 (S. cerevisiae) (UniProt P07270)
# T1 sequence: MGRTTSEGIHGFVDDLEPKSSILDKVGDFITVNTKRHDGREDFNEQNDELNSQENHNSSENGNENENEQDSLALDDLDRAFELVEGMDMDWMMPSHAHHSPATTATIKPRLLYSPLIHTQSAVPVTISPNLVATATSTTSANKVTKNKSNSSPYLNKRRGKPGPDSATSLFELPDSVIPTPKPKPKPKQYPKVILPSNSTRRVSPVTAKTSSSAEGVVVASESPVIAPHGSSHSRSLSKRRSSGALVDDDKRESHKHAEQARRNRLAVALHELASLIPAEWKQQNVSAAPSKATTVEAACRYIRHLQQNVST
# Assay: relative binding free energy (BET-seq); higher = weaker binding
# Conditions: reference: library average
row,Sequence,relative binding free energy [kcal/mol]
1,GTGGCCACGTGGGGTC,-0.09
2,GGAGGCACGTGATGTT,-0.04
3,GTTTACACGTGCTATT,0.02
4,TTTGGCACGTGTTTCC,-0.1
5,GTCGTCACGTGGAGTG,0.19
6,GGTGACACGTGTGTTT,0.14
7,TTGCTCACGTGTGGCT,0.08
8,CATGGCACGTGAGTTA,0.23
9,TGTATCACGTGCAGGA,0.13
10,AAGCTCACGTGATGTA,0.38
11,TAGATCACGTGATGGC,0.25
12,TGTTACACGTGGTGTA,0.02
13,ATATACACGTGGTAAG,0.11
14,ATGGTCACGTGAACGT,0.32
15,TCTTTCACGTGGTTCT,0.11
16,TGCGACACGTGTTTGT,0.13
17,AGTTGCACGTGGAATA,0.13
18,GGGTCCACGTGATGGT,0.11
19,TTCGTCACGTGAGGGT,0.29
20,GCAAGCACGTGATGGG,0.06
21,CGGGGCACGTGGGTCT,-0.28
22,GGCTCCACGTGGTGTT,0.01
23,GATTGCACGTGAAAGT,0.18

row,Sequence,relative binding free energy [kcal/mol]
1,TCATTCACGTGTGGGT,0.22
2,CGTGTCACGTGTGGAC,0.21
3,TTTGACACGTGTACGT,0.03
4,CTAGGCACGTGTAAGT,0
5,TTGGCCACGTGTCGTG,-0.06
6,TTTGTCACGTGTATCT,-0.03
7,TTTCTCACGTGGTTCT,0.15
8,TATTACACGTGTTTAT,0.21
9,ACTTTCACGTGATGGT,0.26
10,GGTTCCACGTGTATTT,0.19
11,ACGAGCACGTGTGTGG,-0.04
12,GACAGCACGTGTGGAG,0.06
13,GAGGGCACGTGTAGTC,-0.03
14,TCTTACACGTGAGTTT,0.26
15,GGTGTCACGTGAATTT,0.34
16,GTGTTCACGTGTGGGC,0.33
17,GATGGCACGTGTTTTT,-0.01
18,ATGGTCACGTGAATGG,0.28
19,CTGTTCACGTGTATAT,0.23
20,GTTTACACGTGGGAGT,0.04
21,TTAACCACGTGTGTGG,-0.11
22,AGTCGCACGTGAAGGT,0.31
23,TGGGACACGTGGTTCT,0.11

row,Sequence,relative binding free energy [kcal/mol]
1,ACGGTCACGTGGTCTT,0.05
2,GTGGTCACGTGTCGCG,0.03
3,ATCATCACGTGGTGTT,0.13
4,TATTCCACGTGTCGTG,0.09
5,TAGAGCACGTGCGCGG,-0.25
6,GGACTCACGTGGGGTA,-0.03
7,TACGACACGTGGTAGG,-0.16
8,GCTGTCACGTGGCGTT,0.06
9,ATAGGCACGTGGAGTA,-0.18
10,CTTGTCACGTGGGGAT,-0.02
11,GTGGGCACGTGATTAT,-0.01
12,TCTTGCACGTGTTTTT,-0.03
13,TTGTCCACGTGGTCAG,0
14,GTCGTCACGTGCAAGT,0.25
15,TAGGGCACGTGGGTCA,-0.23
16,GGTCACACGTGTAGAG,0.3
17,TGTCTCACGTGAGTTG,0.27
18,GTATACACGTGCTGGA,0.11
19,GTGGTCACGTGCGCTG,-0.09
20,AGTGACACGTGATGTT,0.07
21,ATGGGCACGTGATTTT,-0.03
22,GTGAACACGTGGTAGA,-0.06
23,GATGTCACGTGTGGTA,0.17

row,Sequence,relative binding free energy [kcal/mol]
1,AAAGGCACGTGTTTTT,-0.06
2,TAAGTCACGTGCTTTT,0.01
3,TTGGACACGTGTGTAG,0.12
4,ATTAGCACGTGTGTAT,-0.14
5,GGAATCACGTGCAGGT,0.13
6,TCATGCACGTGGCTTT,-0.09
7,GGAGACACGTGAGTTG,0.26
8,TGTGGCACGTGTTGGT,0.04
9,TGGTTCACGTGGACAT,0.35
10,GGGTGCACGTGTATAT,0.09
11,GGTGGCACGTGACAAG,0
12,TATTTCACGTGCTTGG,0.21
13,TGGTACACGTGGGTGC,-0.06
14,TTCGACACGTGTGTGG,0.15
15,TGTGCCACGTGTTGCT,-0.07
16,TTCGGCACGTGGTTAA,-0.1
17,TAGGACACGTGATTTA,0.11
18,TTCTACACGTGTTTTA,0.2
19,TTTTCCACGTGAAATG,0.42
20,GGTAACACGTGAGTCG,0.3
21,AGGACCACGTGGGGGC,-0.25
22,TTGCACACGTGGGGGG,-0.11
23,CAAGGCACGTGGTGAG,-0.2

row,Sequence,relative binding free energy [kcal/mol]
1,GGATTCACGTGGGAGT,0.28
2,AGTGGCACGTGTGCTT,-0.08
3,CTAAACACGTGTGGTG,-0.09
4,CTCGTCACGTGGTATG,0.03
5,TAGTTCACGTGCAGTT,0.48
6,GCGTACACGTGTGGGT,0.14
7,AGAGACACGTGTATGG,0.04
8,AGGGGCACGTGGTGTA,-0.22
9,TGGGTCACGTGGGATT,0.03
10,GCGGGCACGTGTAGGG,-0.06
11,AGGGTCACGTGTGGGG,0.11
12,TTGGACACGTGTGACA,0.12
13,TCGGGCACGTGATGAT,0.13
14,TGGCACACGTGAGTTT,0.12
15,TTAGTCACGTGCTTAA,0.11
16,TATGCCACGTGAGTTT,0.18
17,GGTATCACGTGGCCTT,0.17
18,CAGTTCACGTGAGGGG,0.31
19,GTTAGCACGTGAGGTC,0.09
20,GTGCTCACGTGGGTAT,0.16
21,AGGGTCACGTGCTGGA,-0.02
22,CTATTCACGTGTTGTT,0.18
23,TTAAGCACGTGGGGGG,-0.26
